According to PubChem BioAssay AID1468 (National Center for Advancing Translational Sciences (NCATS), 2008):
Hit rate of the full screen: of about 280,000 compounds, about 1,100 (0.39%) were called active. The inconclusive results got no clear call from the source; some entries with a clear call stand among them for comparison. Calls follow the shape of the dose curve; as a rule, active = well fitted inhibition curve with a large enough effect; inconclusive = small, poorly fitted or top-dose-only effect, or effect the other way; inactive = flat fitted curve, though single readings scatter. Potencies of inconclusive entries are left out as doubtful fits.

Target: Microtubule-associated protein tau (Homo sapiens) (UniProt P10636)
Assay: qHTS for Inhibitors of Tau Fibril Formation, Fluorescence Polarization; also: nearly all actives have a fitted effect of over 55% in size
Details: K18 P301L tau heparin fibrillization, Alexa594 FP, 6 h; series mostly up to 57.7 µM; activity, negative = inhibition: at the top concentration
In short: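 Compound effects on tau fibrillization are measured by Alexa 594 fluorescence polarization (ex 555, em 632 nm). K18 P301L tau is used at 15 uM with 0.24 uM labeled tracer, and 20 uM heparin induces aggregation over 6 hr at 37 C.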
% is scaled to controls: 0 for no effect and ±100 for the full control effect; potency is read from the fitted curve at half-maximal effect; tags tell the direction and shape of the fitted curve.

Chain of UniProt P10636 (P10636 whole entry, looked up): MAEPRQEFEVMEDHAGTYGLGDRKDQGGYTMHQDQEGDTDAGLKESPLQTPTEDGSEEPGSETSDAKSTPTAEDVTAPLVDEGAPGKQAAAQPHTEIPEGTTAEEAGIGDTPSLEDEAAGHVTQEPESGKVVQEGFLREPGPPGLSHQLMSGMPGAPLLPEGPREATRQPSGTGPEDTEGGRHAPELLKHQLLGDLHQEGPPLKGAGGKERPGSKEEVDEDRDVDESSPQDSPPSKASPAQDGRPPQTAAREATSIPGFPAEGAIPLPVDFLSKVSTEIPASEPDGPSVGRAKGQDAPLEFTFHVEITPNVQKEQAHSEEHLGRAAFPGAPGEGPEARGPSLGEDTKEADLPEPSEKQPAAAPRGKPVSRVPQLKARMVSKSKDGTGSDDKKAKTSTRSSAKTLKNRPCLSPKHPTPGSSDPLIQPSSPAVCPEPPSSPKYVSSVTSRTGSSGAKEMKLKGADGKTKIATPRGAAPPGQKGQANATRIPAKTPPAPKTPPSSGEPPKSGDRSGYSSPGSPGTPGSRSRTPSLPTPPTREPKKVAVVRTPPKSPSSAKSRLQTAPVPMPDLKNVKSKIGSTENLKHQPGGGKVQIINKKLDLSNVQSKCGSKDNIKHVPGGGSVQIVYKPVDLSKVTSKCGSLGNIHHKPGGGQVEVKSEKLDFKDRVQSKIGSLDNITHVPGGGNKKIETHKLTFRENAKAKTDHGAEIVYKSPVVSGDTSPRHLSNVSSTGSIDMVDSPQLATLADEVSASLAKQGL

| Structure (SMILES) | Potency | activity, negative = inhibition |
| --- | --- | --- |
| CCc1ccc(NC(=O)c2cc(S(=O)(=O)NC3CCCCCC3)ccc2F)cc1 | inconclusive [inhibitor, single point] | – |
| Cc1cc(C)n2nc(CNC(=O)c3ccc(Cl)cc3)nc2n1 | – | inactive: 2.03% |
| COc1ccc(OC)c(-c2nnc(SCC(=O)N3CCCc4ccccc43)o2)c1 | inconclusive [activator, single point] | – |
| COc1cccc(NC(=O)Cn2c(=O)n(Cc3ccc4c(c3)OCO4)c(=O)c3oc4ccccc4c32)c1 | active: 28.2 µM | – |
| CC(=O)Cn1ncc(Br)c(Br)c1=O | inconclusive [inhibitor, partial curve] | – |
| CCOC(=O)N/N=C1/C[C@@H](O)[C@@H](O)[C@@H]2[C@@H]3C(=O)N(c4cccc(Oc5ccccc5)c4)C(=O)[C@H]3CC[C@H]12 | inconclusive [inhibitor, full curve, poor fit] | – |
| NC(=O)c1c(NC(=O)C2COc3ccccc3O2)sc2c1CCN(Cc1ccccc1)C2 (stereo not drawn) | inconclusive [inhibitor, partial curve] | – |
| S=C(N/N=C/c1ccc2c(c1)OCO2)NC1CC2CCC1C2 (stereo not drawn) | inconclusive [inhibitor, single point] | – |
| COc1ccc(CC(=O)NNC(=O)CSc2ccc(C)cc2)cc1 | inconclusive [inhibitor, single point] | – |
| COc1ccc2c(c1)c(N1CCCC1=O)c(C(=O)Nc1ccc(OC)c(Cl)c1)n2C | inconclusive [inhibitor, single point] | – |
| COc1cc(-c2nnc(COC(=O)CSc3cc(C)c4ccccc4n3)o2)cc(OC)c1OC | – | inactive: 7.82% |
| FC(F)(F)c1cccc(Sc2cc(C(F)(F)F)nc(-c3ccccn3)n2)c1 | inconclusive [inhibitor, partial curve, poor fit] | – |
| Cc1ccc2c(C)nc(Nc3nc(CSc4nnnn4-c4ccccc4)cc(=O)[nH]3)nc2c1 | – | inactive: 4.49% |
| Cc1ccc(S(=O)(=O)Nc2nc3ccccc3nc2Nc2cccc(S(=O)(=O)N3CCCC3)c2)cc1 | – | inactive: 12.6% |
| Cc1nnc(SCC(=O)Nc2ccc(N3CCOCC3)cc2)n1-c1ccccc1 | – | inactive: -1.87% |
| CCOC(=O)N1CCc2c(sc3c2c(=O)n(Cc2ccccc2)c(=O)n3CC(=O)Nc2ccc(F)cc2)C1 | active: 10 µM | – |
| O=C1C(=O)N(Cc2ccco2)C(c2cccs2)/C1=C(\O)c1cccc([N+](=O)[O-])c1 (stereo not drawn) | inconclusive [inhibitor, single point] | – |
| COc1cc(SC#N)ccc1N=Cc1c(C)[nH]n(-c2ccc(C)c(C)c2)c1=O | inconclusive [inhibitor, partial curve] | – |
| CCOc1ccc2nc(Cl)c(C3CC(c4ccc(C)cc4)=NN3C(=O)CCC(=O)O)cc2c1 (stereo not drawn) | – | inactive: -4.64% |
| Cc1ccc(Cn2c(CN3CCN(C(=O)c4ccco4)CC3)nc3c2c(=O)n(C)c(=O)n3C)cc1 | inconclusive [inhibitor, single point] | – |
| O=C(CCn1c(=S)[nH]c2ccccc2c1=O)NCC1CCCO1 (stereo not drawn) | inconclusive [inhibitor, single point] | – |
| O=C(Nc1cc(Cl)cc(Cl)c1)c1cc(S(=O)(=O)NC2CCCC2)ccc1F | inconclusive [inhibitor, partial curve] | – |

| Structure (SMILES) | Potency | activity, negative = inhibition |
| --- | --- | --- |
| O=C(NNC(=O)C1CC=CCC1C(=O)O)c1ccc(Cl)cc1 (stereo not drawn) | inconclusive [inhibitor, full curve, poor fit] | – |
| CCN(CC)S(=O)(=O)c1ccc(N=Nc2c(C)[nH]n(C(N)=S)c2=O)cc1 | – | inactive: 1.03% |
| CN1CCc2nc3sc(C(=O)c4ccc(F)cc4)c(N)c3cc2C1 | inconclusive [activator, single point] | – |
| COc1ccc2c(c1)OCc1c-2oc2cc(OC)ccc12 | inconclusive [activator, partial curve] | – |
| COc1ccc(Nc2nc(-c3ccccc3)nc3ccccc23)cc1S(=O)(=O)N1CCOCC1 | active: 25.1 µM | – |
| C/C(=N\Nc1ccc([N+](=O)[O-])cc1)c1ccc(-n2nncc2C)cc1 | inconclusive [activator, single point] | – |
| CS(=O)(=O)c1ccc2c(c1)sc1nc(=O)c(/C=C3/C=CC(=O)C(O)=C3)c(N)n12 | – | inactive: -1.99% |
| N=C1Sc2ccccc2C2=NCCCN12 | active: 14.1 µM | – |
| CCOc1ccccc1-n1nnnc1SCC(=O)Nc1cc2oc3ccccc3c2cc1OC | inconclusive [inhibitor, single point] | – |
| Cc1ccc(/C=N/NC(=O)c2cccc(S(=O)(=O)Nc3cccc(Cl)c3)c2)o1 | inconclusive [inhibitor, partial curve, poor fit] | – |
| COc1cc(S(=O)(=O)NCCc2c(C)[nH]c3ccc(C)cc23)ccc1Br | inconclusive [activator, partial curve] | – |
| CCOCC(O)CNc1ccccc1 (stereo not drawn) | – | inactive: 1.21% |
| COc1ccc(OC)c(S(=O)(=O)Nc2ccc(O)c3ccccc23)c1 | inconclusive [inhibitor, single point] | – |
| COc1cc(N=Cc2c(O)[nH]c3ccccc23)cc(OC)c1OC | inconclusive [activator, partial curve] | – |
| Cc1cccc(/C=C/C(=O)c2ccc(NC3=NCCCS3)cc2)c1 | – | inactive: 8.25% |
| O=C(C1CCC1)N1CCCc2cc(S(=O)(=O)N3CCN(c4cccc(Cl)c4)CC3)ccc21 | – | inactive: 6.81% |
| Cc1onc(-c2ccccc2Cl)c1C(=O)Oc1ccc(Cl)cc1Cl | inconclusive [inhibitor, single point] | – |
| Cc1nc2ccccc2c2oc(C(=O)Nc3ccc4c(c3)OCCO4)cc12 | inconclusive [inhibitor, single point] | – |
| Cc1ccc(C)c(NC(=O)C(=O)NCCCN2CCOCC2)c1 | inconclusive [inhibitor, single point] | – |
| Cc1ccc(S(=O)(=O)NNC(=O)c2cccnc2)cc1 | inconclusive [inhibitor, single point] | – |
| CCc1ccc(CNC(=O)Cn2nc(C)c3nn(-c4ccc(Cl)cc4)c(C)c3c2=O)cc1 | – | inactive: 8.09% |
